Results published in the supplement of paper PMC12217912.
This is one part of the list. Sequences were assembled here from the parent chain. Values near 0.05 are background.

B1: TEV protease; numbered along this chain (parent)
chain: MGESLFKGPRDYNPISSSICHLTNESDGHTTSLYGIGFGPFIITNKHLFRRNNGTLVVQSLHGVFKVKDTTTLQQHLVDGRDMIIIRMPKDFPPFPQKLKFREPQREERICLVTTNFQTKSMSSMVSDTSCTFPSGDGIFWKHWIQTKDGQCGSPLVSTRDGFIVGIHSASNFTNTNNYFTSVPKNFMELLTNQEAQQWVSGWRLNADSVLWGGHKVFMVKPEEPFQPVKEATQL

Variants of: B1
Test: raw area under fraction-flipped curve 0-4 h after induction (AUC4h, not background-subtracted), DNA-recorder readout of cleavage of the substrate (dimensionless); higher = more cleavage of the substrate by the protease variant
Conditions: temperature: 34 °C; time window: 0-4 h after rhamnose induction
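Note: Bxb1 expression induced with 0.2% (w/v) L-rhamnose at OD600 near 0.5, cultures sampled hourly, flipped fraction per protease–substrate barcode pair counted by paired-end Illumina sequencing.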

Variant	area with substrate ENLYFQC	area with substrate ENLYFQD	area with substrate ENLYFQF	area with substrate ENLYFQG	area with substrate ENLYFQI	area with substrate ENLYFQK	area with substrate ENLYFQL	area with substrate ENLYFQN	area with substrate ENLYFQP	area with substrate ENLYFQR	area with substrate ENLYFQS	area with substrate ENLYFQT	area with substrate ENLYFQV	area with substrate ENLYFQY	area with substrate ENLYFQH	area with substrate ENLYFQM	area with substrate ENLYFQQ	area with substrate ENLYFQW	area with substrate ENLYFQE
MGESLFKGPRDYNPISSSICHLTNESDGHTTSLYGIGFGPFIITNKHLFRRNNGTLVVQSLHGVFKVKDTTTLFQHLVDGRDMIIIRMPKDFPPFPQKLKFREPQREERICLVTTNFQTKSMSSMVSDTSCTFPSGDGIFWKHWIQTKDGQCGSPLVSTRDGFIVGIHSASNFTNTNNYFTSVPKNFMELLTNQEAQQWVSGWRLNADSVLWGGHKVFMVKPEEPFQPVKEATQL [Q74F]	0.0884	0.0573	0.0807	0.104	0.0599	0.0495	0.0503	0.08	0.0549	0.0609	0.0899	0.0705	0.0534	0.064					
MGESLFKGPRDYNPISSSICHRTNESDGHTTSLYGIGFGPFIITNKHLFRRNNGTLVVQSLHGVFKVKDTTTLQQHLVDGRDMIIIRMPKDFPPFPQKLKFREPQREERICLVTTNFQTKSMSSMVSDTSCTFPSGDGIFWKHWIQTKDGQCGSPLVSTRDGFIVGIHSASNFTNTNNYFTSVPKNFMELLTNQEAQQWVSGWRLNADSVLWGGHKVFMVKPEEPFQPVKEATQL [L22R]	0.0256					0.0492	0.0518	0.0364		0.0318	0.048	0.0315		0.0453	0.0456	0.0352	0.039	0.0302	
MGESLFKGPRDYNPISSSICHLTNESDGHTTSLYGIGFGPFIITNKHLFRRNNGTLVVQSLHGVFKVKDTTTLQQHLVDGRDMIIIRMPKDFPPFPQKLKFREPQREERICLVTTNFQTKSMSSMVSDTSCTFPSGDGIFWKHWIQTKDGQCGSPLVSTRDGFIVGIHSASNLTNTNNYFTSVPKNFMELLTNQEAQQWVSGWRLNADSVLWGGHKVFMVKPEEPFQPVKEATQL [F173L]	0.139			0.112		0.0649	0.0704	0.0717		0.0646	0.116	0.0708	0.0578	0.0645	0.0606			0.0594	
MGESLFKGPRDYNPISSSICHLTNESDGHTTSLYGIGFGPFIITNKHLFRRNNGTLVVQSLHGVFKVKDTTTLQQHLVDGRDMIIIRMPKDFPPFPQKLKFREPQREERICLVTTNFQTKSMSSMVSDTSCTFPSGKGIFWKHWIQTKDGQCGSPLVSTRDGFIVGIHSASNFTNTNNYFTSVPKNFMELLTNQEAQQWVSGWRLNADSVLWGGHKVFMVKPEEPFQPVKEATQL [D137K]	0.0899	0.0806		0.0804	0.0642		0.0561			0.0424	0.0899	0.0613		0.0734	0.0803	0.0899		0.0708	
MGESLFKGPRDYNPISSSICHLTNESDGHTTSLYGIGFGPFIITNKHLFRRNNGTLVVQSLHGVFKVKDTTTLQQHLVDGRDMIIIRMPKDFPPFPQKLKFREPQREERICLVTTNFQTKSMSSMVSDTSCTFPSGDGIFWKHWIQTKDGQCGSPLVSTRDGFIFGIHSASNFTNTNNYFTSVPKNFMELLTNQEAQQWVSGWRLNADSVLWGGHKVFMVKPEEPFQPVKEATQL [V165F]	0.0506			0.0481		0.0492	0.022	0.0545		0.0467	0.0503	0.0526	0.0425			0.0556		0.0568	
MGESLFKGPRDYNPISSSICHLTNESDGHTTSLYGIGFGPFIITNKHLFRRNNGTLVVQSLHGVFKVKDTTTLQQHLVDGRDMIIIRMPKDFPPFPQKLKFREPQREERICLVTTNFQTKSMSSMVSDTSCTFPSGDGIFWKHWIQTKDGQCGSPLVSTRDGFIVGIHSASNFTNTNNYFTSVPKNFMELLTNQFAQQWVSGWRLNADSVLWGGHKVFMVKPEEPFQPVKEATQL [E195F]	0.117			0.0851	0.0764		0.0333	0.0708			0.0946	0.0656	0.0529	0.0946					0.0879
MGESLFKGPRDYNPISSSICHLTNESDGHTTSLYGIGFGPFIITNKHLFRRNNGTLVVQSLHGVFKVKDTTTLQQHLVDGRDMIIIRMPKDFPPFPQKLKFREPQREERICLVTTNFQTKSMSSMVSDTSCTFPSGDGIFWKHWIQTKDGQCGSPLVSTRDGFIVGIHSASNFTNTNNYFTSVPKNFMELLTNQEAQQWVSGWRLTADSVLWGGHKVFMVKPEEPFQPVKEATQL [N206T]	0.101	0.0715					0.0606	0.0813		0.0618	0.117			0.0904			0.0861	0.0718	
MGESLFKGPRDYNPISSSICHLTNESDGHTTSLYGIGFGPFIITNKHLFRRNNGTLVVQSLHGVFKVKDTTTLQQHLVDGRDMIIIRMPKDFPPFPQKLKFREPQREERQCLVTTNFQTKSMSSMVSDTSCTFPSGDGIFWKHWIQTKDGQCGSPLVSTRDGFIVGIHSASNFTNTNNYFTSVPKNFMELLTNQEAQQWVSGWRLNADSVLWGGHKVFMVKPEEPFQPVKEATQL [I110Q]	0.0489	0.0594		0.0406			0.0468	0.0516	0.0604		0.0554		0.0641	0.0626			0.0541	0.0503	0.053
MGESLFKGPRDYNPISSSICHLTNESDGHTTSLYGIGFGPFIITNKHLFRRNNGTLVVQSLHGVFKVKDTTTLQQHLVDGRDMIIIRMPKDFPPFPQKLKFREPQREERINLVTTNFQTKSMSSMVSDTSCTFPSGDGIFWKHWIQTKDGQCGSPLVSTRDGFIVGIHSASNFTNTNNYFTSVPKNFMELLTNQEAQQWVSGWRLNADSVLWGGHKVFMVKPEEPFQPVKEATQL [C111N]	0.164			0.0981	0.0567	0.0553		0.0974	0.0572	0.067	0.0914	0.0525						0.0711	
MGESLFKGPRDYNPISSSICHLTNESDGHTTSLYGIGFGPFIITNKHLFRRNNGTLVVQSLHGVFKVKDTTTLQQHLVDGRDMIIIRMPKDFPPFPQKLKFREPQREVRICLVTTNFQTKSMSSMVSDTSCTFPSGDGIFWKHWIQTKDGQCGSPLVSTRDGFIVGIHSASNFTNTNNYFTSVPKNFMELLTNQEAQQWVSGWRLNADSVLWGGHKVFMVKPEEPFQPVKEATQL [E108V]	0.0653			0.0642		0.0593	0.0593			0.0544	0.0621	0.0519	0.0458	0.0649	0.054	0.061		0.0615	0.0419
MGESLFKGPRDYNPISSSICHLTNESDGHTTSLYGIGFGPFIITNKHLFRRNNGTLVVQSLHGVFKVKDTTTLQQHLVDGRDMIIIRMPKDFPPFPQKLKFREPQHEERICLVTTNFQTKSMSSMVSDTSCTFPSGDGIFWKHWIQTKDGQCGSPLVSTRDGFIVGIHSASNFTNTNNYFTSVPKNFMELLTNQEAQQWVSGWRLNADSVLWGGHKVFMVKPEEPFQPVKEATQL [R106H]	0.124				0.0548	0.0667	0.0563	0.0906	0.0713	0.0603	0.0988	0.0626		0.105		0.0899		0.072	
MGESLFKGPRDYNPISSSICHLTNESDGHTTSLYGIGFGPFIITNKHLFRRNNGTLVVQSLHGVFKVKDTTTLQQHLVDGRDMIIIRMPKDFPPFPQKLKFREPQREERICLVTTNFQTKSMSSMVSDTSCTFPSGDGIFWKHWIQTKDGQCGSPLVSTRDGFIVGIHSASNFTNTNNYFTSVPENFMELLTNQEAQQWVSGWRLNADSVLWGGHKVFMVKPEEPFQPVKEATQL [K185E]	0.117		0.108		0.0694	0.0679	0.0618	0.0748	0.0833		0.115	0.0718		0.102	0.0883	0.0833	0.0665	0.0774	
MGESLFKGPRDYNPISSSICHLTNESDGHTTSLYGIGFGPFIITNKHLFRRNNGTLVVQSLHGVFKVKDTTTLQQHLVDGRDMIIIRMPKDFPPFPQKLKFREPQREERICLVTTNFQTKSMSSMVSDTSCTFPSGDGIFWKHWIQTKDGQCGSPLVSTRDGFIVGIHSASNFTNTNNYFTSVPKNHMELLTNQEAQQWVSGWRLNADSVLWGGHKVFMVKPEEPFQPVKEATQL [F187H]	0.0702	0.0576	0.0659	0.0643	0.0613	0.0486	0.0465	0.0399	0.0633	0.0601	0.0645	0.0569	0.0501			0.063		0.0452	0.0695
MGESLFKGPRDYNPISSSICHLTNESDGHTTSLYGIGFGPFIITNKHLFRRNNGTLVVQSLHGVFKVKDTTTLQQHLVDGRDMIIIRMPKDFPPFPQKLKFQEPQREERICLVTTNFQTKSMSSMVSDTSCTFPSGDGIFWKHWIQTKDGQCGSPLVSTRDGFIVGIHSASNFTNTNNYFTSVPKNFMELLTNQEAQQWVSGWRLNADSVLWGGHKVFMVKPEEPFQPVKEATQL [R102Q]	0.0651			0.0662		0.0511	0.0511			0.0678	0.0569	0.0484	0.0504	0.0431		0.055	0.0439		
MGESLFKGPRDYNPISSSICHLTNESDGHTTSLYGIGFGPFIITNKHLFRRNNGTLVVQSLHGVFKVKDTTTLQQALVDGRDMIIIRMPKDFPPFPQKLKFREPQREERICLVTTNFQTKSMSSMVSDTSCTFPSGDGIFWKHWIQTKDGQCGSPLVSTRDGFIVGIHSASNFTNTNNYFTSVPKNFMELLTNQEAQQWVSGWRLNADSVLWGGHKVFMVKPEEPFQPVKEATQL [H76A]	0.0992		0.0567	0.0807		0.0559		0.0721	0.0549	0.0683	0.0877	0.0581	0.0607	0.0671		0.0684		0.0678	
MGESLFKGPRDYNPISSSICHLTNESDGHTTSLYGIGFGPFIITNKHLFRRNNGTLVVQSLHGVFKVKDTTTLQQHLVDGRDMIIIRMPKDFPPFPQKLKFREPQREERICLVTTNFQTKSMSSMVSDTSCTFPSGDGIFWKHWIQTKDGQCGSPLVSTRDGFIVGIHSASNFTDTNNYFTSVPKNFMELLTNQEAQQWVSGWRLNADSVLWGGHKVFMVKPEEPFQPVKEATQL [N175D]	0.0654	0.0643	0.0581	0.0634	0.0452		0.0548	0.0626	0.0525	0.0586	0.0673		0.068		0.0498	0.0686	0.0587	0.0619	0.0602
MGESLFKGPRDYNPISSSICHLTNESDGHTTSLYGIGFGPFIITNKHLFRRNIGTLVVQSLHGVFKVKDTTTLQQHLVDGRDMIIIRMPKDFPPFPQKLKFREPQREERICLVTTNFQTKSMSSMVSDTSCTFPSGDGIFWKHWIQTKDGQCGSPLVSTRDGFIVGIHSASNFTNTNNYFTSVPKNFMELLTNQEAQQWVSGWRLNADSVLWGGHKVFMVKPEEPFQPVKEATQL [N53I]	0.109	0.0503	0.0599	0.0794	0.0606	0.0512	0.0282	0.0677	0.0568	0.0612	0.0772	0.0613	0.0663	0.0598	0.0773				
MGESLFKGPRDYNPISSSCCHLTNESDGHTTSLYGIGFGPFIITNKHLFRRNNGTLVVQSLHGVFKVKDTTTLQQHLVDGRDMIIIRMPKDFPPFPQKLKFREPQREERICLVTTNFQTKSMSSMVSDTSCTFPSGDGIFWKHWIQTKDGQCGSPLVSTRDGFIVGIHSASNFTNTNNYFTSVPKNFMELLTNQEAQQWVSGWRLNADSVLWGGHKVFMVKPEEPFQPVKEATQL [I19C]	0.111	0.0672	0.073	0.104	0.0723		0.0692			0.0633	0.0997	0.066	0.0513	0.0783	0.0851			0.0645	
MGESLFKGPRDYNPISSSICHLTNESDGHTTSLYGIGFGPFIITNKHLFRRNNGTLVVQSLHGVFKVKDTTTLQQHLVDGRDMIIIRMPKDFPPFPSKLKFREPQREERICLVTTNFQTKSMSSMVSDTSCTFPSGDGIFWKHWIQTKDGQCGSPLVSTRDGFIVGIHSASNFTNTNNYFTSVPKNFMELLTNQEAQQWVSGWRLNADSVLWGGHKVFMVKPEEPFQPVKEATQL [Q97S]	0.106	0.0838							0.0828		0.104			0.142	0.0769				
